The GPR68 mutational scans of Howard et al. (2025)

B1: GPR68, Q15743 (parent)
chain: MGNITADNSSMSCTIDHTIHQTLAPVVYVTVLVVGFPANCLSLYFGYLQIKARNELGVYLCNLTVADLFYICSLPFWLQYVLQHDNWSHGDLSCQVCGILLYENIYISVGFLCCISVDRYLAVAHPFRFHQFRTLKAAVGVSVVIWAKELLTSIYFLMHEEVIEDENQHRVCFEHYPIQAWQRAINYYRFLVGFLFPICLLLASYQGILRAVRRSHGTQKSRKDQIQRLVLSTVVIFLACFLPYHVLLLVRSVWEASCDFAKGVFNAYHFSLLLTSFNCVADPVLYCFVSETTHRDLARLRGACLAFLTCSRTGRAREAYPLGAPEASGKSGAQGEEPELLTKLHPAFQTPNSPGSGGFPTGRLA

Tests used:
[1] = variants of: B1; test: cAMP reporter score (Enrich2 score, wild type = 0); higher = more signal; HEK293T, FACS bins
[2] = variants of: B1; test: surface expression score (Enrich2 score, wild type = 0); higher = more signal; HEK293T, FACS bins

Variant	cAMP reporter score ([1]; pH 5.5)	cAMP reporter score ([1]; pH 6, modulator: ogerin)	cAMP reporter score ([1]; pH 6.5, modulator: ogerin)	surface expression score [2]	cAMP reporter score ([1]; pH 6)
Q225S	0.86	0.51	1.47	-0.224	–
Q225T	-1.13	–	0.635	–	1.52
Q225V	-0.239	-0.902	-1.02	-0.634	-0.324
Q225W	0.583	0.257	-0.584	-0.252	-0.275
Q225Y	0.293	0.515	-0.439	-0.495	-0.431
Q225_I226insG	-0.154	–	0.763	0.186	–
Q225del	-1.3	-1.39	-0.734	0.502	-1.11
Q227A	0.579	0.75	0.427	1.51	-0.628
Q227C	0.247	0.296	0.135	0.27	0.644
Q227E	0.162	0.039	-0.658	-0.717	-0.698
Q227F	0.366	0.899	1.61	-1.13	–
Q227G	1.1	1.5	–	0.509	0.557
Q227H	0.36	0.419	0.181	0.079	0.786
Q227I	0.172	0.083	-1.09	-1.35	-0.876
Q227K	-0.255	-0.665	0.596	-1.09	0.929
Q227L	1.13	0.592	2.24	0.134	1.56
Q227M	0.167	0.8	1.53	-0.383	–
Q227N	-0.166	0.861	0.138	-0.237	0.575
Q227P	-0.005	-0.098	-0.309	-0.346	1.08
Q227R	-0.473	-0.63	-0.679	-0.398	-0.179
Q227S	0.635	1.3	0.9	0.813	0.338
Q227T	0.379	0.449	1.26	0.031	0.689

Variant	cAMP reporter score ([1]; pH 5.5)	cAMP reporter score ([1]; pH 6, modulator: ogerin)	cAMP reporter score ([1]; pH 6.5, modulator: ogerin)	surface expression score [2]	cAMP reporter score ([1]; pH 6)
Q227V	-0.363	-0.419	-0.315	0.127	-0.126
Q227W	1.1	-0.01	–	–	–
Q227Y	0.179	1.05	2.08	-0.218	3.3
Q227_R228insGSG	-1.6	-1.52	-0.839	0.399	-1.26
R228A	-0.167	-0.535	-0.332	-0.96	–
R228D	-1.12	-0.916	-0.929	–	–
R228E	-1.04	–	-1.31	-2.02	-0.141
R228F	-0.655	-1.31	-1.44	-2.33	-0.54
R228G	-0.31	-1.12	-1.08	-0.661	-1.09
R228H	0.112	-0.495	-1.31	-0.787	-1.33
R228I	0.814	0.545	-0.14	-1.71	-0.22
R228K	-0.754	-0.994	-0.77	-0.81	0
R228L	0.388	-0.17	-0.879	–	–
R228M	-0.383	-1.08	-0.945	-1.93	–
R228N	-0.019	-0.668	-0.17	-0.285	–
R228P	-1.78	-1.36	-1.27	0.069	-1.15
R228Q	0.172	-0.246	-1.07	-1.11	-0.463
R228S	-1.19	-1.2	-1.58	-2.47	-1.17
R228T	-0.236	-0.992	-1.35	-2.05	-1.06
R228V	0.506	0.658	-0.202	-1.62	-0.153
R228W	1.51	1.51	1.01	0.596	0.583
R228Y	1.96	1.66	0.332	0.871	-0.069

Variant	cAMP reporter score ([1]; pH 5.5)	cAMP reporter score ([1]; pH 6, modulator: ogerin)	cAMP reporter score ([1]; pH 6.5, modulator: ogerin)	surface expression score [2]	cAMP reporter score ([1]; pH 6)
R228_L229del	-1.62	–	-1.59	-1.16	–
R228_L229insG	-2.35	–	-0.512	-0.391	-2.08
R228_L229insGSG	-2.68	-2.11	-1.48	-0.609	-0.967
R228_V230del	-2.73	-2.26	–	–	–
R228del	-0.582	-0.605	-0.327	0.21	-0.903
L229A	-0.055	-0.709	-2.62	-2.18	–
L229C	0.665	0.022	-0.704	-0.648	0.026
L229F	-0.389	-1.09	-0.564	-0.717	-0.017
L229G	-1.11	-0.543	1.24	-1.97	0.357
L229H	-1.14	-0.881	–	-0.542	–
L229K	2.59	-0.628	–	-0.41	–
L229M	-0.501	-0.432	-1.24	-0.845	-0.275
L229Q	0.808	0.865	1.75	-0.26	1.91
L229R	-0.422	-0.7	-0.432	-0.43	-0.577
L229S	-0.567	-1.51	-1.28	-1.57	-1.35
L229T	-0.259	0.684	1.19	-1.66	2.96
L229V	0.688	0.614	0.481	-0.89	–
L229W	-0.358	-1.55	-1.79	–	-1.44
L229_L231del	-1.99	-2.68	-1.4	-1.63	0.023
L229_V230del	-1.2	–	0.12	-0.83	–
L229_V230insGSG	-2.24	-1.68	-1.27	-1.35	-1.63
V230A	-0.649	-1.26	-1.27	0.688	-0.069

Scores whose standard error is large were omitted. The source holds two more conditions with little spread; they are left out. Read del as a deletion of the residues named and ins as an insertion between two positions. For some assays here: The data file names ogerin without a concentration.
